{
  "source": "PubChem BioAssay AID651820",
  "about": "(National Center for Advancing Translational Sciences (NCATS), 2012)",
  "note": "Screen size: about 340,000 compounds; about 12,000 (3.5%) were called active. This list was built around the results that the source calls inconclusive (neither active nor inactive); the mix of calls is not that of the screen. Calls come from the whole dose curve; as a rule, active = well fitted inhibition curve with a large enough effect; inconclusive = small, poorly fitted or top-dose-only effect, or another doubt; inactive = no such curve, though single readings can be large or run the other way. Potencies of inconclusive entries are left out as doubtful fits. % is set by controls: 0 for no effect and ±100 for the full control effect; potency is the fitted concentration of half-maximal effect; tags give direction and shape of the fitted curve.",
  "data": [
    {"experiment": "qHTS Assay for Inhibitors of Hepatitis C Virus (HCV)", "conditions": "Huh7.5.1 HCVcc-Cre (HCVcc is cell-culture hepatitis C virus) infection, luciferase reporter, 44 h; activity change, negative = inhibition: at 41.8 µM (top of the series) unless noted", "how_it_was_run": "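1,000 cells/well; 4 h culture; + compound; + HCVcc-Cre (~0.5 moi); 44 h; luciferase substrate, RT 15 min; read 15 sec.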", "values": [
      {"smiles": "CC(C)CCN(C(=O)CCCSc1nc2ccccc2[nH]1)c1c(N)n(Cc2ccccc2)c(=O)[nH]c1=O", "Potency": "inconclusive [inhibitor, single point]"},
      {"smiles": "COc1ccccc1C=Cc1ccnc2ccccc12", "Potency": "inconclusive [inhibitor, partial curve]"},
      {"smiles": "CCc1ccc(/C(C)=N/NS(=O)(=O)c2ccc(OC)cc2)s1", "Potency": "inactive"},
      {"smiles": "CNC(=O)/C(C#N)=C/c1c(N2CCN(c3cccc(Cl)c3)CC2)nc2c(C)cccn2c1=O", "Potency": "inactive"},
      {"smiles": "Cc1ccc(NC(=O)NCCN2CCN(C(=O)Nc3ccc(C)cc3)CC2)cc1", "Potency": "inconclusive [inhibitor, partial curve]"},
      {"smiles": "CCCCOn1c(C)c(C(=O)OCC)c2c3nonc3ccc21", "Potency": "inconclusive [inhibitor, partial curve]"},
      {"smiles": "Oc1ccc(C[C@H]2CNC(=S)N2CC2CCCN2C[C@H](Cc2ccc(O)cc2)N2C[C@H](Cc3ccccc3)N(CC3CCCCCC3)C2=S)cc1", "note": "(stereo not given in full)", "Potency": "inconclusive [inhibitor, full curve]"},
      {"smiles": "O=C1/C(=C/c2ccccc2Cl)SC(=S)N1CCCC(=O)N(CCO)c1ccccc1", "Potency": "active: 12.6 µM"},
      {"smiles": "CN1C(=O)/C(=C/c2ccc(N3CCCCCC3)o2)C(=O)NC1=S", "Potency": "inactive"},
      {"smiles": "CCN(CC)C(=O)Cn1cc(S(=O)(=O)CC(=O)NC2CCCCC2)c2ccccc21", "Potency": "inactive"},
      {"smiles": "Cc1ccc(C(=O)N2CCN(c3ccc(NC(=S)NC(=O)Cc4ccccc4)cc3)CC2)cc1", "Potency": "inconclusive [inhibitor, single point]"},
      {"smiles": "O=C(NC1CCCCC1)c1nc2c(nnn2Cc2ccccc2Cl)c(=O)[nH]1", "Potency": "inconclusive [inhibitor, single point]"},
      {"smiles": "O=C(c1ccc2nc(-c3ccco3)c(-c3ccco3)nc2c1)N1CCN(c2ccccc2)CC1", "Potency": "inconclusive [inhibitor, partial curve]"},
      {"smiles": "COc1cc(Cl)cc(NC(=O)CCN2CCN(C)CC2)c1", "Potency": "inconclusive [inhibitor, single point]"},
      {"smiles": "COc1ccc(-c2csc(Nc3cc(C)ccn3)n2)cc1OC", "Potency": "active: 10 µM"},
      {"smiles": "CCCCn1c(SCC(=O)NC(=O)Cc2ccccc2)nc2ccccc2c1=O", "Potency": "inconclusive [inhibitor, partial curve]"},
      {"smiles": "Cc1ccc(NCCC(=O)c2ccc(Cl)cc2)cc1", "Potency": "inactive"},
      {"smiles": "N#Cc1ccc(S(=O)(=O)N2CCC(C(=O)Nc3cccc(C(=O)NC4CC4)c3)CC2)cc1", "Potency": "inconclusive [inhibitor, single point]"},
      {"smiles": "CCOC(=O)CNC(=O)CSc1nc2cccnc2n1C1CCCCC1", "Potency": "inactive"},
      {"smiles": "NC(=S)NC(=O)/C=C/c1ccccc1", "activity change, negative = inhibition": "inconclusive: -33.1% [inhibitor]"},
      {"smiles": "CC(=O)Nc1nc2ccccc2n1CCN(C)C", "Potency": "inactive"},
      {"smiles": "O=S(=O)(c1ccc(SCCOc2ccccc2Cl)nc1)N1CCCC1", "Potency": "active: 12.6 µM"},
      {"smiles": "CCCc1cc(=O)oc2c(C)c(OCC(=O)NC3CC(C)(C)NC(C)(C)C3)ccc12", "Potency": "inconclusive [inhibitor, partial curve]"},
      {"smiles": "CCOc1ccc(N(CC(=O)NCCOc2ccccc2OC)S(=O)(=O)c2ccccc2)cc1", "Potency": "inconclusive [inhibitor, single point]"},
      {"smiles": "CCn1cc(C(=O)NP(=O)(Nc2ccc(C)cc2)Nc2ccc(C)cc2)c2ccccc21", "Potency": "inactive"},
      {"smiles": "CCOC(=O)C1C(c2ccc(O)c(O)c2)NC(=S)NC1(O)C(F)(F)F", "note": "(stereo not given)", "Potency": "inactive"},
      {"smiles": "COc1ccc(NS(=O)(=O)c2cc(NS(=O)(=O)c3cccs3)ccc2C)cc1", "Potency": "inactive"},
      {"smiles": "CCCCNC(=O)c1ccc2c(c1)N(CC)C(=O)CS2", "Potency": "inconclusive [inhibitor, partial curve]"},
      {"smiles": "COCCSc1nc2c(c(=O)[nH]c(=O)n2C)n1CCCc1ccccc1", "Potency": "inconclusive [inhibitor, single point]"},
      {"smiles": "CCOc1ccc(-c2n[nH]c(C)c2Oc2ccc(OC)cc2)c(O)c1", "Potency": "active: 11.2 µM"},
      {"smiles": "Cc1ccccc1OCCn1cc(/C(N)=N/O)c2ccccc21", "Potency": "inconclusive [inhibitor, single point]"},
      {"smiles": "COc1ccc(C(=O)Sc2ccc(Cl)cc2)cc1OC", "Potency": "inconclusive [inhibitor, single point]"},
      {"smiles": "N#Cc1c(C#N)c(SSc2c(C#N)c(C#N)c(N)n2-c2ccccc2)n(-c2ccccc2)c1N", "Potency": "inconclusive [inhibitor, single point]"},
      {"smiles": "C=CCn1c(SCC(=O)Nc2cc(C)nn2-c2ccccc2)nnc1C1CCCCC1", "Potency": "inconclusive [inhibitor, single point]"},
      {"smiles": "COc1ccc(N2CCN(C(c3ccc4ncccc4c3)c3nnnn3C(C)C)CC2)cc1", "note": "(stereo not given)", "Potency": "inactive"},
      {"smiles": "CC(C)(C)OC(=O)N1CCCC(C(=O)Nc2ccc(C(=O)N3CCCC3)cc2)C1", "note": "(stereo not given)", "Potency": "inconclusive [inhibitor, single point]"},
      {"smiles": "CCNc1nc2c(c(=O)n(C)c(=O)n2C)n1CCCc1ccccc1", "Potency": "inconclusive [inhibitor, partial curve]"},
      {"smiles": "COc1cc2ccccc2cc1C(=O)Nc1ccncc1", "Potency": "inconclusive [inhibitor, partial curve]"},
      {"smiles": "CCC(C)NC(=O)c1ccccc1NC(=O)COc1ccc(OC)cc1", "note": "(stereo not given)", "Potency": "inconclusive [inhibitor, single point]"},
      {"smiles": "COc1cccc(NC(=O)C(=O)NCC(c2ccco2)N2CCc3ccccc3C2)c1", "note": "(stereo not given)", "Potency": "inconclusive [inhibitor, partial curve]"},
      {"smiles": "COc1ccc(OC)c(N=c2oc3cc(O)ccc3cc2C(N)=O)c1", "Potency": "inconclusive [inhibitor, partial curve, poor fit]"},
      {"smiles": "Cc1ccc(S(=O)(=O)N(Cc2ccc(Cl)cc2)c2ccccc2C(=O)NCc2ccco2)cc1", "Potency": "inconclusive [inhibitor, single point]"},
      {"smiles": "COc1ccc(NC(=O)CSc2nc3ccc(OC)cc3[nH]2)cc1", "Potency": "inactive"},
      {"smiles": "CN1CCc2nc3sc(C(=O)NC(C)(C)C)c(N)c3cc2C1", "Potency": "inconclusive [inhibitor, single point]"},
      {"smiles": "CN(C)c1ccc(/C=N/NC(=O)c2ccc(CN3CCOCC3)cc2)cc1Br", "Potency": "inconclusive [inhibitor, single point]"},
      {"smiles": "Clc1ccc(C2=NCCn3nc4ccccc4c32)cc1", "Potency": "inconclusive [inhibitor, single point]"},
      {"smiles": "CN(CC(=O)N1CCN(Cc2ccccc2)CC1)C(=O)Cc1ccc(Cl)c(Cl)c1", "Potency": "inconclusive [inhibitor, single point]"},
      {"smiles": "C/C(=N\\N=C(/N)SC1CC(=O)N(c2ccccc2)C1=O)c1cccs1", "note": "(stereo not given)", "Potency": "inactive"},
      {"smiles": "COc1cccc(/C=C/C(=O)c2ccc[nH]2)c1", "Potency": "inactive"},
      {"smiles": "Cc1cccn2c(=O)nc(SCC(=O)N3CCC(C)CC3)nc12", "activity change, negative = inhibition": "inactive: 6.29% [at 8.37 µM]"},
      {"smiles": "O=C(CSc1nc2c(c(=O)n1-c1ccc(Br)cc1)SCC2)Nc1nccs1", "Potency": "inactive"},
      {"smiles": "CCN(CC)c1ccc(/C=N/NC(=O)Cc2cccs2)cc1", "Potency": "inconclusive [inhibitor, single point]"},
      {"smiles": "CCc1c(C)nc2ncnn2c1N1CCC(C(=O)NCc2cccs2)CC1", "Potency": "inconclusive [inhibitor, partial curve]"},
      {"smiles": "O=C(c1ccc(-c2ccc([N+](=O)[O-])cc2)o1)N1CCCCCCC1", "Potency": "inconclusive [inhibitor, single point]"},
      {"smiles": "O=C(NCc1ccccc1)C1=C[C@@H](c2csc3ccccc23)C[C@@H](OCc2ccc(CO)cc2)O1", "Potency": "inconclusive [inhibitor, single point]"},
      {"smiles": "CC1CCN(C(=O)c2ccc(CS(=O)(=O)Cc3ccccc3)cc2)CC1", "Potency": "inconclusive [inhibitor, single point]"},
      {"smiles": "COc1ccc(OC)c2c(C)cc(N3CCCCCC3)nc12", "Potency": "inactive"},
      {"smiles": "CC(=O)Nc1ccc(S(=O)(=O)N(C)c2ccccc2)cc1", "Potency": "inactive"},
      {"smiles": "CCC1(CC)Cc2ccccc2-c2nc3ccccc3c(=O)n21", "Potency": "inconclusive [inhibitor, single point]"},
      {"smiles": "CCc1ccc(-n2c(=S)sc3c(=O)n(-c4ccccc4OC)c(=S)[nH]c32)cc1", "Potency": "inconclusive [inhibitor, single point]"},
      {"smiles": "COc1cc2cc(C(=O)N3CCc4ccccc4C3)[nH]c2cc1OC", "Potency": "inconclusive [inhibitor, partial curve]"},
      {"smiles": "COc1cccc(-c2nnc(SCC(=O)N3CC(C)CC(C)C3)o2)c1", "note": "(stereo not given)", "Potency": "inactive"},
      {"smiles": "O=C(Nc1ccsc1C(=O)N1CCCCCC1)c1ccccc1", "Potency": "inconclusive [inhibitor, partial curve]"},
      {"smiles": "Cc1cc(C)cc(NC(=O)C(c2ccccc2)N2CCN(CC(=O)NC3CC3)CC2)c1", "note": "(stereo not given)", "Potency": "inconclusive [inhibitor, single point]"},
      {"smiles": "CN1CCN(c2nc(Nc3cccc(C(F)(F)F)c3)nc(N3CCOCC3)n2)CC1", "Potency": "inconclusive [inhibitor, single point]"},
      {"smiles": "N#CCn1c(CN2CCCC2)nc2ccccc2c1=O", "Potency": "inactive"},
      {"smiles": "S=C(NCc1ccco1)N1CCN(c2cccc(Cl)c2)CC1", "Potency": "inconclusive [inhibitor, single point]"},
      {"smiles": "O=C(NC(Cc1c[nH]c2ccccc12)C(=O)Nc1ccc(F)c([N+](=O)[O-])c1)c1cccs1", "note": "(stereo not given)", "Potency": "inconclusive [inhibitor, single point]"},
      {"smiles": "C/C(=N\\NC(=S)NCc1ccccc1)c1ccc(C(C)(C)C)cc1", "Potency": "inactive"},
      {"smiles": "COc1cc(C(=O)OCCc2cc3ccccc3c(=O)o2)cc(OC)c1OC", "Potency": "active: 3.55 µM"}
    ]}
  ]
}
